In ChEMBL document CHEMBL4888484, “Replenishing the malaria drug discovery pipeline: Screening and hit evaluation of the MMV Hit Generation Library 1 (HGL1) against asexual blood stage Plasmodium falciparum ,using a nano luciferase reporter read-out” (2022):
About 540 (0.36%) of roughly 150,000 compounds showed an effect of 50% or more. This is one part of the list.

System: Plasmodium falciparum
Experiment: Primary screen in NF54 nanoGlo assay, in single point, at 2uM, 72h; a lower Z score goes with more inhibition
Type: functional, Erythrocyte
Details: timepoint 72 hour

| SMILES | % Inhibition | Z score |
| --- | --- | --- |
| O=C(N1CCC(n2cc(Cl)cn2)CC1)C1(O)CCCCC1 | -1% | 0.07 |
| CN1CCC(C(=O)NCC2(c3cccc(F)c3F)CCCC2)CC1 | -6% | 1.17 |
| C[C@H](NC(=O)CCn1c(=O)cc(C(F)F)c2cn(C3CCCC3)nc21)c1ccn(C)n1 | 26% | -2.91 |
| O=S(=O)(Nc1ccnn1[C@H]1CCOC1)c1cnn(C2CCC2)c1 | 12% | -1.56 |
| Cc1ccc(C)c(CN2CCN(Cc3[nH]cnc3C)[C@@H]3CS(=O)(=O)C[C@@H]32)c1 | -13% | 1.5 |
| CC1(C)C[C@@H]1NC(=O)c1ccc(S(C)(=O)=O)cc1 | -1% | 0.13 |
| COc1cc(C)ccc1Oc1ccc(NCC2(C)CCOCC2)cn1 | 9% | -1.17 |
| COc1ccc(CN2CCC([C@]3(Cc4cccc(OC)c4)NC(=O)N(C)C3=O)CC2)cc1 | 0% | 0.02 |
| O=C(O)COc1ccccc1CN1C[C@@H]2CC[C@H]1CN(C(=O)C1CCC1)C2 | -9% | 1.16 |
| Cn1c(C2CCC(CNC(=O)c3ccno3)CC2)nc2ccccc21 (stereo not drawn) | -5% | 0.76 |
| CC(C)Oc1ccc(S(=O)(=O)NC2(c3noc(C4CC4)n3)CCCC2)cc1 | -4% | 0.45 |
| CC1(C)Oc2ccsc2[C@@H](Nc2ccc3nncn3n2)[C@@H]1O | -8% | 0.71 |
| CCN(CC(=O)NC)c1ccccc1C | -8% | 1.08 |
| CCCc1cc(-c2ccc3c(c2)OCCO3)nc(C)n1 | -1% | 0.22 |
| C[C@H]1CNc2c(NC(=O)NCCNc3ccc(C#N)cn3)cnn2C1 | -6% | 1.01 |
| C[C@H]1CCC(C)(C)N1C(=O)c1ccc2nnnn2c1 | -3% | 0.59 |
| CCCn1ncc(CN2CCN(c3ccnc4ccccc34)CC2)c1C | -3% | 0.54 |
| CCOC1(C)CCN(C(=O)NC[C@H]2Cc3ccccc3CN2)CC1 | -1% | 0.27 |
| COc1cc(Br)cc(S(=O)(=O)Nc2nnc(-c3ccc(C)c(F)c3)o2)c1 | -42% | 4.89 |
| c1coc(-c2ncc(-c3cn(CCN4CCc5ccccc54)nn3)cn2)c1 | 18% | -2.33 |
| O=C1CCCCN1CC(=O)N1CCO[C@@H](CCCc2ccccc2)C1 | -17% | 2.82 |

| SMILES | % Inhibition | Z score |
| --- | --- | --- |
| C[C@@H](CNC(=O)N1CCOC2(CCC2)C1)Oc1ccc(Cl)cc1 | -1% | 0.25 |
| CCOC(=O)c1cc(S(=O)(=O)N2CCC[C@H]2C(=O)Nc2ccc3c(c2)OCCO3)cn1C | -2% | 0.36 |
| CC1CCN([C@@H](C)C(=O)N2CCc3onc(-c4ccccc4)c3C2)CC1 | -7% | 0.84 |
| C[C@H]1CN(C(=O)c2ccc3ncsc3c2)C[C@]1(O)C1CCC1 | -12% | 2.1 |
| Cc1csc([C@H](C)NC(=O)c2cnn[nH]2)n1 | -4% | 0.8 |
| COc1ccccc1N1CCN(C(=O)C[C@H]2CCOC3(CCN(C(C)=O)CC3)C2)CC1 | -1% | 0.15 |
| Oc1ccnc2c1ccc1c(O)ccnc12 | -9% | 1.07 |
| Fc1ccccc1-c1noc(NCc2ccc(Cl)cc2)n1 | -11% | 1.01 |
| Cc1oc(C(C)C)nc1C(=O)NCc1ccncc1 | -15% | 2 |
| COc1ccc(C)cc1-c1n[nH]c(C(=O)N(C)C)n1 | -7% | 0.62 |
| C=C(C)C[C@H](C)C(=O)Nc1cnsc1 | -3% | 0.39 |
| Cc1cc(C)c(C(=O)N2CCCC[C@@H]2C(=O)O)o1 | -4% | 0.6 |
| Cc1noc2ncc(NCc3c4c(nn3C)CCC4)cc12 | 2% | -0.39 |
| Cc1cc(C)cc(C(=O)N2CCCN(c3cc(=O)n(C)c(=O)n3C)CC2)c1 | -6% | 0.87 |
| C[C@H]1CCN(Cc2cn(C)c(=O)n(C)c2=O)c2ccccc21 | -7% | 1.29 |
| c1nc(N2CCC(COc3cc4c(nn3)CCC4)CC2)c2cc[nH]c2n1 | -5% | 0.57 |
| CCC(=O)N[C@@H]1c2ccccc2C2(CCN(C(=O)c3sccc3C)CC2)[C@H]1OCc1cccnc1 | 1% | -0.11 |
| Fc1ccccc1Nc1nc(Oc2ccc(Cl)cc2)nc(N2CCc3ccccc3C2)n1 | 5% | -0.68 |
| C=Cc1ccc(C(=O)Nc2ccc(-c3cnn(C)c3)nn2)cc1 | 6% | -0.82 |
| CCCc1cnc(NC(=O)c2cnn(CC)c2)s1 | -9% | 1.47 |
| O=C(CCc1ccc(Cl)c(C(F)(F)F)c1)NCc1cccnc1-c1ccsc1 | 0% | -0.06 |

| SMILES | % Inhibition | Z score |
| --- | --- | --- |
| O=C(Cc1noc2ccccc12)N1CCC[C@@]2(CCOC2)C1 | 2% | -0.33 |
| CN1CCN(C(=O)c2ncc(F)cc2F)C[C@H]1c1ccccc1 | 3% | -0.49 |
| CCc1cnc(CCNC(=O)N2CCO[C@H](c3cccc(Cl)c3)[C@H]2C)s1 | 0% | -0.04 |
| O=S(=O)([C@H]1CCOC1)N1Cc2cnn(-c3ccccc3)c2C1 | 5% | -0.95 |
| O=C(COC(=O)CN1C(=O)c2ccccc2C1=O)Nc1ccc(N2CCCCC2)cc1 | -2% | 0.27 |
| COCCOCc1nc([C@@H]2CCCCN2C(=O)C2CCCC2)no1 | -12% | 1.57 |
| CCN(CC)CCc1ccc(NC2CCN(C(=O)C(C)(C)C)CC2)cc1 | -11% | 1.43 |
| Cc1cc(N[C@@H](C)[C@H](O)c2ccc(O)cc2)n2nc(C)cc2n1 | -24% | 2.21 |
| O=C(CN1CCn2nc(-c3ccc(Cl)cc3)cc2C1=O)NCCN1CCCCC1 | -8% | 1.12 |
| CC(C)N1CCCn2cc(S(=O)(=O)Nc3cccc(C(F)(F)F)c3)cc2C1=O | -15% | 1.77 |
| O=C(O)[C@H]1CCCN1C(=O)CCc1ccccc1Cl | -4% | 0.36 |
| COc1cccc(CC(=O)N2CC(N(Cc3ccccn3)C(=O)Nc3ccccc3)C2)c1 | 1% | -0.28 |
| Cc1cc(NC(=O)N[C@H]2CC(=O)N(C3CCCC3)C2)ccc1Br | 0% | -0.07 |
| CC(NCC(C#N)CCC#N)c1cccc(Br)c1 (stereo not drawn) | -12% | 1.74 |
| O=C1CN(c2ccccc2)C(=O)N1CCOc1cccc(Br)c1 | 0% | 0.06 |
| CCOc1cccc(CNC(=O)C[C@H]2c3ncccc3C(=O)N2c2ccccc2)c1 | -2% | 0.38 |
| CC(C(=O)NC(=O)NC1CCCCC1)N1CCCC1c1ccc2c(c1)OCCCO2 (stereo not drawn) | -16% | 2.01 |
| O=S(=O)(C1CC1)N1C[C@@H]2CC[C@H]1CN(C1Cc3ccccc3C1)C2 | -17% | 1.8 |
| CC1CC(C)CN(C(=O)c2ccc(-n3c(-c4ccccc4)cc4c3CCCCC4)cc2)C1 (stereo not drawn) | -12% | 2.27 |
| OC[C@]1(O)CCCN(CCOc2ccccc2)CC1 | -23% | 2.98 |
| O=C(NCc1cc2n(n1)CCCO2)[C@@H]1CCc2cccc(O)c21 | -8% | 1.06 |

| SMILES | % Inhibition | Z score |
| --- | --- | --- |
| O=C(N[C@H](c1ccc2c(c1)CCO2)C1CC(O)C1)c1ncc(F)cc1F (stereo partly drawn) | -7% | 0.69 |
| COc1cccc(C(=O)N2CCc3cc4ccc(C)cc4nc32)c1 | -8% | 0.89 |
| C[C@H]1CCCN(CC(=O)Nc2cccc3nonc23)C1 | 5% | -0.53 |
| CCOC[C@H]1CCCN1S(=O)(=O)c1cc(-c2ccno2)sc1C | 2% | -0.24 |
| O=C(COc1ccc(Cl)cc1Cl)Nc1onc2c1CCC2 | 38% | -4.87 |
| Cn1cnn(CC(=O)N[C@H]2CCN(c3ccc(Cl)cc3)C2)c1=O | -13% | 1.34 |
| CN(CC1CCOCC1)c1nc2nonc2nc1NC1CCCC1 | -7% | 1.1 |
| CN1CCN(C[C@@H]2CN(C(=O)c3cc4ccccc4s3)C[C@@H]2CO)CC1 | -5% | 0.83 |
| Cc1ccc(F)c(CNc2nnc([C@@H]3CCCO3)o2)c1 | -14% | 1.58 |
| COc1ccccc1C(=O)N1CCc2nc(N3CCN(C)CC3)nc(Oc3ccc(C)cc3)c2C1 | 0% | 0.02 |
| CCOCCC1(CNC(=O)c2ccc3nc4n(c3c2)CCC4)CCC1 | -8% | 1.13 |
| CC(C)CN(CN1C(=O)c2cc(Cl)c(Cl)cc2C1=O)C1CC1 | -1% | 0.16 |
| CN1CCC(n2nccc2NC(=O)c2sccc2Cl)CC1 | -10% | 1.28 |
| O=C(O[C@@H](Cc1ccccc1)c1ccccc1)c1cnn2cccnc12 | -3% | 0.45 |
| O=C(COc1ccc2c(c1)OCO2)NCc1ccccn1 | 1% | -0.21 |
| O=C(NC1CC1)C1CCCC(NCc2cccc3cn[nH]c23)C1 (stereo not drawn) | -3% | 0.29 |
| C#CC[C@H](OC(=O)c1cnn(C)c1)c1ccccn1 | -15% | 2.38 |
| O=C(Cc1cccs1)NC1CCN(c2nnc3ccc(Cl)cn23)CC1 | 41% | -4.68 |
| Cc1ccccc1-c1cc2n(n1)CCC(=O)N2CC(=O)N1CCN(c2ccccc2)CC1 | -8% | 0.79 |
| CC(C)C[C@@H](C(=O)N1Cc2cccnc2C1)c1ccccc1 | 28% | -3.2 |
| Cc1c([C@H](C)NCc2ccnn2C2CCCC2)cnn1C | -1% | 0.13 |
